Measured values published in the supplement of paper PMC8728848.
Some of the results follow.

Experiments:
Experiment in all cases: glycan array binding signal (z-score within array); higher = stronger binding
Settings in all cases: glycan notation: IUPAC condensed, linker removed
[1] = target: Fuc(a1-2)Gal(b1-4)GlcNAc(b1-3)Gal(b1-4)GlcNAc(b1-3)Gal(b1-4)GlcNAc
Procedure, shortened: (§1)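 Glycan array data came from 3228 arrays in the Consortium for Functional Glycomics database, and only arrays with an available protein sequence were kept. Glycan names were put into IUPAC-condensed notation, and columns mapping to the same glycan were averaged. The binding signal is a within-array Z-score, averaged across arrays of one protein sequence run at different concentrations or buffers and across linkers. A negative Z-score can be read as non-binding.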

[2] = target: Fuc(a1-2)Gal(b1-4)GlcNAc(b1-3)GalNAc
Procedure, shortened: as §1

[3] = target: Fuc(a1-2)Gal(b1-4)GlcNAc(b1-3)[Fuc(a1-2)Gal(b1-4)GlcNAc(b1-6)]GalNAc
Procedure, shortened: as §1

[4] = target: Fuc(a1-2)Gal(b1-4)GlcNAc(b1-3)[Fuc(a1-3)[Gal(b1-4)]GlcNAc(b1-6)]Gal(b1-4)Glc
Procedure, shortened: as §1

[5] = target: Fuc(a1-2)Gal(b1-4)GlcNAc(b1-6)GalNAc
Procedure, shortened: as §1

[6] = target: Fuc(a1-2)Gal(b1-4)GlcNAc6S
Procedure, shortened: as §1

[7] = target: Fuc(a1-2)Gal(b1-4)[Fuc(a1-3)]GlcNAc
Procedure, shortened: as §1

[8] = target: Fuc(a1-2)Gal(b1-4)[Fuc(a1-3)]GlcNAc(b1-2)Man(a1-3)[Fuc(a1-2)Gal(b1-4)[Fuc(a1-3)]GlcNAc(b1-2)Man(a1-6)]Man(b1-4)GlcNAc(b1-4)[Fuc(a1-6)]GlcNAc
Procedure, shortened: as §1

[9] = target: Fuc(a1-2)Gal(b1-4)[Fuc(a1-3)]GlcNAc(b1-2)[Fuc(a1-2)Gal(b1-4)[Fuc(a1-3)]GlcNAc(b1-4)]Man(a1-3)[Fuc(a1-2)Gal(b1-4)[Fuc(a1-3)]GlcNAc(b1-2)Man(a1-6)]Man(b1-4)GlcNAc(b1-4)GlcNAc
Procedure, shortened: as §1

[10] = target: Fuc(a1-2)Gal(b1-4)[Fuc(a1-3)]GlcNAc(b1-3)Gal(b1-4)[Fuc(a1-3)]GlcNAc
Procedure, shortened: as §1

[11] = target: Fuc(a1-2)Gal(b1-4)[Fuc(a1-3)]GlcNAc(b1-3)Gal(b1-4)[Fuc(a1-3)]GlcNAc(b1-3)Gal(b1-4)[Fuc(a1-3)]GlcNAc
Procedure, shortened: as §1

[12] = target: Fuc(a1-2)Gal(b1-4)[Fuc(a1-3)]GlcNAc(b1-3)GalNAc
Procedure, shortened: as §1

[13] = target: Fuc(a1-2)Gal(b1-4)[Fuc(a1-3)]GlcNAc(b1-3)[Neu5Ac(a2-6)Gal(b1-4)GlcNAc(b1-6)]Gal(b1-4)Glc
Procedure, shortened: as §1

[14] = target: Fuc(a1-2)Gal3S(b1-4)GlcNAc
Procedure, shortened: as §1

[15] = target: Fuc(a1-2)Gal6S(b1-3)GlcNAc
Procedure, shortened: as §1

[16] = target: Fuc(a1-2)Gal6S(b1-3)GlcNAc6S
Procedure, shortened: as §1

[17] = target: Fuc(a1-2)Gal6S(b1-4)Glc
Procedure, shortened: as §1

[18] = target: Fuc(a1-2)Gal6S(b1-4)Glc6S
Procedure, shortened: as §1

[19] = target: Fuc(a1-2)[Gal(a1-3)]Gal
Procedure, shortened: as §1

[20] = target: Fuc(a1-2)[Gal(a1-3)]Gal(b1-3)GalNAc
Procedure, shortened: as §1

[21] = target: Fuc(a1-2)[Gal(a1-3)]Gal(b1-3)GalNAc(b1-3)Gal(a1-4)Gal(b1-4)Glc
Procedure, shortened: as §1

[22] = target: Fuc(a1-2)[Gal(a1-3)]Gal(b1-3)GlcNAc
Procedure, shortened: as §1

[23] = target: Fuc(a1-2)[Gal(a1-3)]Gal(b1-3)GlcNAc(b1-2)Man(a1-3)[Fuc(a1-2)[Gal(a1-3)]Gal(b1-3)GlcNAc(b1-2)Man(a1-6)]Man(b1-4)GlcNAc(b1-4)GlcNAc
Procedure, shortened: as §1

[24] = target: Fuc(a1-2)[Gal(a1-3)]Gal(b1-3)GlcNAc(b1-2)Man(a1-3)[Fuc(a1-2)[Gal(a1-3)]Gal(b1-3)GlcNAc(b1-2)Man(a1-6)]Man(b1-4)GlcNAc(b1-4)[Fuc(a1-6)]GlcNAc
Procedure, shortened: as §1

[25] = target: Fuc(a1-2)[Gal(a1-3)]Gal(b1-3)GlcNAc(b1-3)GalNAc
Procedure, shortened: as §1

[26] = target: Fuc(a1-2)[Gal(a1-3)]Gal(b1-3)GlcNAc(b1-6)GalNAc
Procedure, shortened: as §1

[27] = target: Fuc(a1-2)[Gal(a1-3)]Gal(b1-4)Glc
Procedure, shortened: as §1

[28] = target: Fuc(a1-2)[Gal(a1-3)]Gal(b1-4)GlcNAc
Procedure, shortened: as §1

[29] = target: Fuc(a1-2)[Gal(a1-3)]Gal(b1-4)GlcNAc(b1-2)Man
Procedure, shortened: as §1

[30] = target: Fuc(a1-2)[Gal(a1-3)]Gal(b1-4)GlcNAc(b1-2)Man(a1-3)[Fuc(a1-2)[Gal(a1-3)]Gal(b1-4)GlcNAc(b1-2)Man(a1-6)]Man(b1-4)GlcNAc(b1-4)GlcNAc
Procedure, shortened: as §1

B1: SBD-G4S3-SBD (protein)
chain: MASIPSSASVQLDSYNYDGSTFSGKIYVKNIAYSKKVTVVYADGSDNWNNNGNIIAASFSGPISGSNYEYWTFSASVKGIKEFYIKYEVSGKTYYDNNNSANYQVSTGGGGSGGGGSGGGGSEFASIPSSASVQLDSYNYDGSTFSGKIYVKNIAYSKKVTVVYADGSDNWNNNGNIIAASFSGPISGSNYEYWTFSASVKGIKEFYIKYEVSGKTYYDNNNSANYQVST
- glycan array binding signal (z-score) [1]: -0.414
- glycan array binding signal (z-score) [2]: -0.363
- glycan array binding signal (z-score) [3]: -0.317
- glycan array binding signal (z-score) [4]: -0.371
- glycan array binding signal (z-score) [5]: 0.607
- glycan array binding signal (z-score) [6]: -0.349
- glycan array binding signal (z-score) [7]: -0.383
- glycan array binding signal (z-score) [8]: 0.018
- glycan array binding signal (z-score) [9]: 0.699
- glycan array binding signal (z-score) [10]: -0.363
- glycan array binding signal (z-score) [11]: -0.314
- glycan array binding signal (z-score) [12]: 0.867
- glycan array binding signal (z-score) [13]: -0.41
- glycan array binding signal (z-score) [14]: -0.4
- glycan array binding signal (z-score) [15]: -0.408
- glycan array binding signal (z-score) [16]: -0.245
- glycan array binding signal (z-score) [17]: -0.378
- glycan array binding signal (z-score) [18]: -0.389
- glycan array binding signal (z-score) [19]: -0.356
- glycan array binding signal (z-score) [20]: -0.379
- glycan array binding signal (z-score) [21]: -0.327
- glycan array binding signal (z-score) [22]: -0.291
- glycan array binding signal (z-score) [23]: -0.381
- glycan array binding signal (z-score) [24]: -0.314
- glycan array binding signal (z-score) [25]: -0.334
- glycan array binding signal (z-score) [26]: -0.322
- glycan array binding signal (z-score) [27]: -0.3
- glycan array binding signal (z-score) [28]: -0.393
- glycan array binding signal (z-score) [29]: -0.356
- glycan array binding signal (z-score) [30]: 1.24
